± gives the standard deviation of the averaged measurements. The list shows a part of the results.
These sequences were tested on PfAP2-EXP AP2 domain (GST-tagged) (assay: gcPBM binding intensity (ln(normalized median fluorescence intensity)); higher = stronger DNA binding).
In short: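 GST-tagged P. falciparum DNA-binding domains, expressed in E. coli (about 25 μg on average), were applied for 1 h to an Agilent 4 × 180k array of primer-extended double-stranded 36-bp intergenic genomic probes plus negative controls. The binding buffer was 1× PBS with 1% milk, 0.2 mg/ml BSA, 0.5% salmon testes DNA and 0.03% Triton X-100. Bound protein was detected with Alexa488 anti-GST antibody and scanned at 488 nm. Binding intensity is the highest Masliner-normalised natural-log median intensity across replicate spots of either probe orientation.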

Sequence | gcPBM binding intensity (ln)
AAGAATAAGGAAAAATGTACAGAATGCACATATGAA [XGTACX_site4705] | 8.67 ± 0.27
TAGGGATTATACCACACACACATACACATAAATATA [CACACA_site3178] | 8.79 ± 0.42
ACCTTAAATAATACATGTACAAAAAAATTTATAATA [XGTACX_site1043] | 9.64 ± 0.58
TTCTTTTTTTAAAGAAGTACTATATTTTAAATTATA [XGTACX_site5059] | 8.12 ± 0.21
TTTAAAATAAATTAATAGAACAAAAATAAAATGATT [GTGCAC_negctrl_site375] | 8.62 ± 0.49
ATGTATATATATATATGTACATATTTTTTATATGTA [XGTACX_site441] | 8.29 ± 0.25
AAAAAAAATACAAAAAGTACAAAAAATACAAAAAAA [XGTACX_site8844] | 8.52 ± 0.43
TATAAAAAAATAAAAGGAATATACTTGCAAAGGGTA [CACACA_negctrl_site1438] | 9.02 ± 0.46
AACAATATATTGATATTATTTTAAGTGATTATATAT [XGTACX_negctrl_site205] | 8.15 ± 0.35
AATAATAAAAAAAGTGCACACACATAATATATATAT [CACACA_site9100] | 9.47 ± 0.099
TTTTTTTTTGTTATGTTGCACTTTGCCATATTATTA [GTGCAC_site9844] | 8.88 ± 0.34
TTTCAAATGATTAAGTGTACATGTTTGCTTGCTCTT [XGTACX_site4697] | 8.64 ± 0.54
TGATATTATAGATATACACACATGTATGTATTTATA [CACACA_site6758] | 8.35 ± 0.49
AAATTTAGTAAAAAATGTACGTAAAATGTAAAATAT [XGTACX_site1314] | 8.96 ± 0.38
AAGGTAAACGGACACACACACATACAAAAAAAAAAA [CACACA_site5961] | 8.7 ± 0.48
ATACTAACATTTTTTTGTACATATAACTATAAAATA [XGTACX_site1033] | 8.61 ± 0.3
AATGATTTTGATTAACGTACGTACAAATATATATAT [XGTACX_site6604] | 9.31 ± 0.057
TATATATTATATAAATAAATAAATATATATATTTAT [TGCATGCA_negctrl_site270] | 8.12 ± 0.4
TTATTAAATATAAATATGTATCTTTTATGTTATATT [CACACA_negctrl_site306] | 8.15 ± 0.26

Sequence | gcPBM binding intensity (ln)
AGACCTATGATATATACACACATATAAATAAATATA [CACACA_site6725] | 8.45 ± 0.57
AATGTTAAACTATGATGTACGGTTAAAAATATAATT [XGTACX_site893] | 8.66 ± 0.45
TAAATCCGCAGGCACACACACATATTAATAAAAAAA [CACACA_site3991] | 8.59 ± 0.83
TATTTTACGACATACCAAAAAAAAAAAAAAAAAATA [CACACA_negctrl_site1254] | 8.13 ± 0.49
AAAAAAAAAAGACACACACACATAGACCTCCAATAG [CACACA_site7646] | 8.7 ± 0.54
TCCTCATTTTATCATACACACTTGTTTATATGTGTG [CACACA_site6548] | 8.66 ± 0.44
TATATATATATAATTTGTACACACAAATATGCATAT [XGTACX_site7297] | 9.88 ± 0.18
ATATATAATAATTGTAGTACAATTAATAAATAAAAT [XGTACX_site3840] | 8.61 ± 0.4
AATATTTATAAATTTACACACACACCCGTGAACATA [CACACA_site1910] | 8.76 ± 0.37
TTATCATTTTAAATCACACACATATATAAATATGTA [CACACA_site7359] | 8.28 ± 0.35
ATACGATTGCAGTCAAAAAGGAAAATATAAAAAAAG [XGTACX_negctrl_site124] | 8.6 ± 0.6
TTAATAACGTAATGTAAATGTTTCATACCCTTTTTT [CACACA_negctrl_site988] | 8.36 ± 0.43
TTTTTTTTTCTGTATACACACAAAATTTATTTTTTA [CACACA_site2873] | 8.67 ± 0.41
ATATATATGTATGTATATATATATATATATGTTTGA [CACACA_negctrl_site107] | 8.48 ± 0.26
AAAGAAGGGGGGGGAAAAAAAAATAAAAGAGGAAAA [XGTACX_negctrl_site92] | 9.36 ± 0.042
ATAAAATAAAAACATGCACACTTTATTTTTTTTAAG [CACACA_site5545] | 8.59 ± 0.18
GATAATAATAAGTGTACACATATATTTAGAAGAGTA [CACACA_site4245] | 8.81 ± 0.25
AAAATGTATATTGGCGCATGTAAACAAATACTATAC [TGCATGCA_site385] | 9.2 ± 0.27
TCAAAATGTGACATAAAAGAAAAAAAAAAAAAAAAA [CACACA_negctrl_site1092] | 8.03 ± 0.47

Sequence | gcPBM binding intensity (ln)
TGGGGTATTAAAAAAACACACAAAAAAAATATAAAG [CACACA_site1915] | 8.55 ± 0.58
TTTTCTTTTTTCTTTTTAACTCTTACATAATAGGTG [CACACA_negctrl_site642] | 8.54 ± 0.45
AAAAAAAAAAAAATTACACACATACCTATAAGAATA [CACACA_site7097] | 8.36 ± 0.53
TAAAATGAATAAAATTGTACTTAATAATATTTTAAA [XGTACX_site5532] | 7.96 ± 0.35
AATATATGTTAAAATGGTACACAATTATTATATATT [XGTACX_site6407] | 8.46 ± 0.4
AAAAAAAAAAAAAAGAGTACTTTTTTCACATTCATC [XGTACX_site8795] | 8.38 ± 0.18
TTGTTTCAAAATTAAACACACACAAAAAAAAAAAAA [CACACA_site8856] | 8.31 ± 0.47
TAAATCAAAAACAACAAGTCATATTAAAGATGGTAT [CACACA_negctrl_site1321] | 8.73 ± 0.52
CTTATAATATTACGGGTGCTATAAATACATTATATT | 8.81 ± 0.16
AAGGAAAACAGTAGGTGTACCAAACGTCCTAGGAAC [XGTACX_site3659] | 9.05 ± 0.47
TATATTTATATCATCACACATTTTTTTTTTCTTTTT [CACACA_site6150] | 8.41 ± 0.53
TAATATATAAATATATGTACATAATTAATAGGATAT [XGTACX_site237] | 8.76 ± 0.38
GGATATATAAGATACACACACAAATTAAATATAAAA [CACACA_site7333] | 8.65 ± 0.49
TATTCCTAATTTAAAAGTACATATATATATATATAT [XGTACX_site3008] | 10.2 ± 0.54
TTTTTTAAATTTAAAGTGCATTATTATATATTTGTA | 8.65 ± 0.15
CCAGTGTGCACCTTGCGTACATATTAAATTAATTAA [XGTACX_site3729] | 9.06 ± 0.23
AAAAAAGAAATAAGGATACACACTATTGATAAAAGT [CACACA_site272] | 8.84 ± 0.44
GGATAAGAAAAGAAGTGTACATATATATATATATAT [XGTACX_site8290] | 10.2 ± 0.35

Source: the supplement of paper PMC11417369
